Test results reported in the supplement of paper PMC8948288.
The sequences are guide strands of siRNAs; only the seed at positions 2 to 7 varies.

Assays:
GL261 = test: cell viability relative to siNT1 (ATP content); H4 human neuroglioma and GL261 mouse glioma; higher = less toxic; settings: siRNA concentration 25 nM; 96 h; mouse
H4 = test: as above; settings: siRNA concentration 10 nM; 96 h; human
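Note: cells reverse transfected with siRNA duplexes via lipid reagent, ATP read by luminescence, triplicate wells, values scaled to mean viability with non-targeting control siNT1.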

Sequence	cell viability (GL261) [%]	cell viability (H4) [%]
UGCACGGACAUGUAAACCA	48.1	59.5
UGCACGUACAUGUAAACCA	35.4	86.8
UGCACUAACAUGUAAACCA	56.3	109
UGCACUCACAUGUAAACCA	25.9	55.8
UGCACUGACAUGUAAACCA	47.1	65.1
UGCACUUACAUGUAAACCA	36.7	58.1
UGCAGAAACAUGUAAACCA	36.5	59.4
UGCAGACACAUGUAAACCA	16.8	55.1
UGCAGAGACAUGUAAACCA	32.9	70.1
UGCAGAUACAUGUAAACCA	31.3	27.7
UGCAGCAACAUGUAAACCA	31.7	63.5
UGCAGCCACAUGUAAACCA	12.8	25.1
UGCAGCGACAUGUAAACCA	34.3	59.7
UGCAGCUACAUGUAAACCA	15.6	42.9
UGCAGGAACAUGUAAACCA	28.7	39.9
UGCAGGCACAUGUAAACCA	31.6	1.73
UGCAGGGACAUGUAAACCA	12.9	11.6
UGCAGGUACAUGUAAACCA	19.3	2.36
UGCAGUAACAUGUAAACCA	37.3	81.7
UGCAGUCACAUGUAAACCA	15.9	51.2
UGCAGUGACAUGUAAACCA	56.5	81.5
UGCAGUUACAUGUAAACCA	42.5	67
UGCAUAAACAUGUAAACCA	73.4	78.4
UGCAUACACAUGUAAACCA	25.7	66.2

Sequence	cell viability (GL261) [%]	cell viability (H4) [%]
UGCAUAGACAUGUAAACCA	45.1	79.5
UGCAUAUACAUGUAAACCA	69.1	69
UGCAUCAACAUGUAAACCA	40.1	77
UGCAUCCACAUGUAAACCA	23.9	39.5
UGCAUCGACAUGUAAACCA	27.4	103
UGCAUCUACAUGUAAACCA	44.2	75.4
UGCAUGAACAUGUAAACCA	26.3	70.8
UGCAUGCACAUGUAAACCA	15	40.4
UGCAUGGACAUGUAAACCA	53.7	69
UGCAUGUACAUGUAAACCA	15.4	48.4
UGCAUUAACAUGUAAACCA	87.7	65.1
UGCAUUCACAUGUAAACCA	85.4	59.9
UGCAUUGACAUGUAAACCA	64.6	81.6
UGCAUUUACAUGUAAACCA	33.7	56.2
UGCCAAAACAUGUAAACCA	42.5	86.1
UGCCAACACAUGUAAACCA	35.9	74.2
UGCCAAGACAUGUAAACCA	43.6	63.9
UGCCAAUACAUGUAAACCA	40.7	105
UGCCACAACAUGUAAACCA	33.9	71.5
UGCCACCACAUGUAAACCA	12.9	67.7
UGCCACGACAUGUAAACCA	30.9	61.5
UGCCACUACAUGUAAACCA	31.8	48.8
UGCCAGAACAUGUAAACCA	45.9	81.1
UGCCAGCACAUGUAAACCA	7.68	20.9

Sequence	cell viability (GL261) [%]	cell viability (H4) [%]
UGCCAGGACAUGUAAACCA	24.9	5.83
UGCCAGUACAUGUAAACCA	15.4	56.5
UGCCAUAACAUGUAAACCA	53.3	95.6
UGCCAUCACAUGUAAACCA	10.3	4.51
UGCCAUGACAUGUAAACCA	43.6	50
UGCCAUUACAUGUAAACCA	36.2	74.7
UGCCCAAACAUGUAAACCA	38.2	84.1
UGCCCACACAUGUAAACCA	31.8	69.2
UGCCCAGACAUGUAAACCA	24.1	67
UGCCCAUACAUGUAAACCA	47.4	76.3
UGCCCCAACAUGUAAACCA	47.4	85.6
UGCCCCCACAUGUAAACCA	34.6	30.5
UGCCCCGACAUGUAAACCA	45.2	74.5
UGCCCCUACAUGUAAACCA	47.6	94.7
UGCCCGAACAUGUAAACCA	59.4	76.2
UGCCCGCACAUGUAAACCA	70.9	67
UGCCCGGACAUGUAAACCA	59.9	61.4
UGCCCGUACAUGUAAACCA	44.2	84.7
UGCCCUAACAUGUAAACCA	61.6	84.4
UGCCCUCACAUGUAAACCA	8.96	9.65
UGCCCUGACAUGUAAACCA	30.5	102
UGCCCUUACAUGUAAACCA	20.2	64.8
UGCCGAAACAUGUAAACCA	65.9	88.5
UGCCGACACAUGUAAACCA	26.2	11.6

Sequence	cell viability (GL261) [%]	cell viability (H4) [%]
UGCCGAGACAUGUAAACCA	42.5	86.8
UGCCGAUACAUGUAAACCA	43.6	74.1
UGCCGCAACAUGUAAACCA	27.9	103
UGCCGCCACAUGUAAACCA	10.9	58.4
UGCCGCGACAUGUAAACCA	38.6	78.4
UGCCGCUACAUGUAAACCA	26.1	42
UGCCGGAACAUGUAAACCA	48.7	60.4
UGCCGGCACAUGUAAACCA	32.2	27.8
UGCCGGGACAUGUAAACCA	24.2	55.6
UGCCGGUACAUGUAAACCA	42.8	26.1
UGCCGUAACAUGUAAACCA	57.5	86.3
UGCCGUCACAUGUAAACCA	16.1	68.3
UGCCGUGACAUGUAAACCA	35	97.6
UGCCGUUACAUGUAAACCA	38.6	76.2
UGCCUAAACAUGUAAACCA	51.8	84
UGCCUACACAUGUAAACCA	27.7	43.5
UGCCUAGACAUGUAAACCA	57.2	97.1
UGCCUAUACAUGUAAACCA	40.2	48.7
UGCCUCAACAUGUAAACCA	49.4	52.2
UGCCUCCACAUGUAAACCA	36.4	31.4
UGCCUCGACAUGUAAACCA	55.9	51
UGCCUCUACAUGUAAACCA	32.7	55
UGCCUGAACAUGUAAACCA	45.6	50.8
UGCCUGCACAUGUAAACCA	14.5	5.97

Sequence	cell viability (GL261) [%]	cell viability (H4) [%]
UGCCUGGACAUGUAAACCA	22.2	25.6
UGCCUGUACAUGUAAACCA	34	8.62
UGCCUUAACAUGUAAACCA	82.9	57.9
UGCCUUCACAUGUAAACCA	8.92	4.51
UGCCUUGACAUGUAAACCA	72.4	62.8
UGCCUUUACAUGUAAACCA	19.3	24.7
UGCGAAAACAUGUAAACCA	47.6	113
UGCGAACACAUGUAAACCA	63.5	75
UGCGAAGACAUGUAAACCA	50.2	93.9
UGCGAAUACAUGUAAACCA	39.7	96.3
UGCGACAACAUGUAAACCA	40.2	82.9
UGCGACCACAUGUAAACCA	36.6	26.3
UGCGACGACAUGUAAACCA	38.4	73.8
UGCGACUACAUGUAAACCA	25.2	75.1
UGCGAGAACAUGUAAACCA	49.2	97.1
UGCGAGCACAUGUAAACCA	25.2	72.7
UGCGAGGACAUGUAAACCA	20.8	72.1
UGCGAGUACAUGUAAACCA	56.7	21.5
UGCGAUAACAUGUAAACCA	69.3	45.2
UGCGAUCACAUGUAAACCA	28.6	55.5
UGCGAUGACAUGUAAACCA	44.4	82.9
UGCGAUUACAUGUAAACCA	46.8	85.2
